This is one part of the list.
Legend:
HSkMC = human skeletal muscle cells; assay: cytotoxicity call (relative viability < 0.9); conditions: 10 µM
HepG2 = assay: cytotoxicity call (relative viability < 0.9); conditions: 10 µM
S. aureus RN4220 = assay: growth inhibition call (relative growth <= 0.2); conditions: 50 µM

Cc1ccc(S(=O)(=O)Nc2ccc3c(c2)C(=O)N([C@H](C)CO)C[C@@H](C)[C@H](CN(C)Cc2ccc(C(F)(F)F)cc2)OCCCC[C@H](C)O3)cc1
cytotoxicity call (HSkMC): active
cytotoxicity call (HepG2): active
growth inhibition call (S. aureus RN4220): inactive

CO[C@H]1CN(C)C(=O)c2cc(NC(=O)Nc3ccccc3F)ccc2OC[C@@H](C)N(Cc2ccccc2C(=O)O)C[C@H]1C
cytotoxicity call (HSkMC): inactive
cytotoxicity call (HepG2): inactive
growth inhibition call (S. aureus RN4220): inactive

C[C@@H]1CCCCO[C@H](CN(C)S(=O)(=O)c2ccc(Cl)cc2)[C@@H](C)CN([C@@H](C)CO)C(=O)c2cc(NC(=O)c3ccncc3)ccc2O1
cytotoxicity call (HSkMC): inactive
cytotoxicity call (HepG2): active
growth inhibition call (S. aureus RN4220): inactive

Cc1ccc(S(=O)(=O)N(C)C[C@H]2Oc3cc(Br)ccc3S(=O)(=O)N([C@@H](C)CO)C[C@@H]2C)cc1
cytotoxicity call (HSkMC): inactive
cytotoxicity call (HepG2): inactive
growth inhibition call (S. aureus RN4220): inactive

C[C@@H]1CN([C@@H](C)CO)C(=O)Cc2cc(NC(=O)CCC(F)(F)F)ccc2O[C@@H]1CN(C)Cc1ccc(Oc2ccccc2)cc1
cytotoxicity call (HSkMC): inactive
cytotoxicity call (HepG2): active
growth inhibition call (S. aureus RN4220): inactive

COc1ccc(S(=O)(=O)N(C)C[C@@H]2Oc3c(NC(=O)NC(C)C)cccc3C(=O)N([C@H](C)CO)C[C@H]2C)cc1
cytotoxicity call (HSkMC): inactive
cytotoxicity call (HepG2): inactive
growth inhibition call (S. aureus RN4220): inactive

COc1ccc(CNC(=O)C[C@@H]2C[C@@H]3c4cc(NS(=O)(=O)c5ccc(F)cc5)ccc4O[C@@H]3[C@H](CO)O2)cc1
cytotoxicity call (HSkMC): inactive
cytotoxicity call (HepG2): inactive
growth inhibition call (S. aureus RN4220): inactive

O=C1COC2(CCN(C(=O)c3ccno3)CC2)CN1
cytotoxicity call (HSkMC): inactive
cytotoxicity call (HepG2): inactive
growth inhibition call (S. aureus RN4220): inactive

C[C@@H]1CN([C@H](C)CO)C(=O)c2cccc(NC(=O)c3nc4ccccc4s3)c2O[C@H]1CN(C)Cc1ccc(Cl)c(Cl)c1
cytotoxicity call (HSkMC): inactive
cytotoxicity call (HepG2): inactive
growth inhibition call (S. aureus RN4220): inactive

O=C(NCCN1CCCC1)[C@@H]1[C@@H](CO)[C@@H]2Cn3c(cccc3=O)[C@@H]2N1C(=O)c1ccccc1
cytotoxicity call (HSkMC): inactive
cytotoxicity call (HepG2): inactive
growth inhibition call (S. aureus RN4220): inactive

CC(C)NC(=O)Nc1ccc2c(c1)C(=O)N([C@H](C)CO)C[C@H](C)[C@@H](CN(C)Cc1ccc(Cl)c(Cl)c1)OCCCC[C@H](C)O2
cytotoxicity call (HSkMC): inactive
cytotoxicity call (HepG2): inactive
growth inhibition call (S. aureus RN4220): inactive

CN1CC2(COC2)OCCS1(=O)=O
cytotoxicity call (HSkMC): inactive
cytotoxicity call (HepG2): inactive
growth inhibition call (S. aureus RN4220): inactive

C[C@H]1CN([C@@H](C)CO)C(=O)c2cccc(NC(=O)Nc3ccc(C(F)(F)F)cc3)c2O[C@@H]1CN(C)C(=O)Nc1ccccc1
cytotoxicity call (HSkMC): inactive
cytotoxicity call (HepG2): active
growth inhibition call (S. aureus RN4220): active

COC(=O)CNC(=O)/C=C/c1ccc(OC)cc1
cytotoxicity call (HSkMC): inactive
cytotoxicity call (HepG2): inactive
growth inhibition call (S. aureus RN4220): inactive

COc1ccc(S(=O)(=O)N(C)C[C@@H]2OCCCC[C@H](C)Oc3ccc(NC(=O)Nc4ccccc4)cc3C(=O)N([C@@H](C)CO)C[C@@H]2C)cc1
cytotoxicity call (HSkMC): inactive
cytotoxicity call (HepG2): inactive
growth inhibition call (S. aureus RN4220): inactive

C[C@@H]1CN([C@@H](C)CO)C(=O)c2cc(C#CC3(O)CCCC3)cnc2O[C@@H]1CN(C)S(C)(=O)=O
cytotoxicity call (HSkMC): inactive
cytotoxicity call (HepG2): inactive
growth inhibition call (S. aureus RN4220): inactive

Cc1ccc(S(=O)(=O)Nc2cccc3c2O[C@H](CN(C)Cc2ccc(-c4ccccc4)cc2)[C@@H](C)CN([C@@H](C)CO)C3=O)cc1
cytotoxicity call (HSkMC): inactive
cytotoxicity call (HepG2): inactive
growth inhibition call (S. aureus RN4220): inactive

CC(C)C(N)C(=O)O (centres undefined)
cytotoxicity call (HSkMC): inactive
cytotoxicity call (HepG2): inactive
growth inhibition call (S. aureus RN4220): inactive

O=C(CN1CCOCC1)N[C@H]1CC[C@H](CCNC(=O)C2CCCCC2)O[C@H]1CO
cytotoxicity call (HSkMC): inactive
cytotoxicity call (HepG2): inactive
growth inhibition call (S. aureus RN4220): inactive

Cn1ccnc1C(=O)NCc1cnc2n1CCNCC2
cytotoxicity call (HSkMC): inactive
cytotoxicity call (HepG2): inactive
growth inhibition call (S. aureus RN4220): inactive

O=C(CCCCCNC(=O)OCCCCO[C@@H]1C[C@H](c2ccc(Br)cc2)C=C(C(=O)N2CCN(Cc3ccccc3)CC2)O1)NO
cytotoxicity call (HSkMC): inactive
cytotoxicity call (HepG2): inactive
growth inhibition call (S. aureus RN4220): inactive

O=C(C[C@H]1C[C@@H]2c3cc(NS(=O)(=O)c4ccccc4)ccc3O[C@@H]2[C@H](CO)O1)NC1CCCCC1
cytotoxicity call (HSkMC): inactive
cytotoxicity call (HepG2): inactive
growth inhibition call (S. aureus RN4220): inactive

C[C@@H]1CN([C@@H](C)CO)S(=O)(=O)c2ccc(C#Cc3ccc(F)cc3)cc2O[C@@H]1CN(C)C(=O)c1ccccn1
cytotoxicity call (HSkMC): inactive
cytotoxicity call (HepG2): inactive
growth inhibition call (S. aureus RN4220): inactive

CC(=O)NCCOc1ccc(C(=O)O)cc1
cytotoxicity call (HSkMC): inactive
cytotoxicity call (HepG2): inactive
growth inhibition call (S. aureus RN4220): inactive

O[C@@H]1[C@@H](O)[C@H](O)OC[C@H]1O
cytotoxicity call (HSkMC): inactive
cytotoxicity call (HepG2): inactive
growth inhibition call (S. aureus RN4220): inactive

O=c1[nH]nc2ccccn12
cytotoxicity call (HSkMC): inactive
cytotoxicity call (HepG2): inactive
growth inhibition call (S. aureus RN4220): inactive

Cc1noc(C)c1NC(=O)N(C)C[C@@H]1Oc2ccc(NC(=O)Nc3ccc(C(F)(F)F)cc3)cc2CC(=O)N([C@H](C)CO)C[C@H]1C
cytotoxicity call (HSkMC): inactive
cytotoxicity call (HepG2): inactive
growth inhibition call (S. aureus RN4220): inactive

C[C@@H]1CN([C@H](C)CO)C(=O)c2cccc(NC(=O)c3nc4ccccc4s3)c2O[C@H]1CN(C)S(=O)(=O)c1cn(C)cn1
cytotoxicity call (HSkMC): inactive
cytotoxicity call (HepG2): inactive
growth inhibition call (S. aureus RN4220): inactive

From the antibiotic and cytotoxicity screens of Wong et al. (2023)
